The whole screen tested about 310,000 compounds, of which about 2,200 (0.71%) showed an effect of 50% or more. Effects have a minus sign here. This is one part of the list.

For this experiment, the target named is human ether-à-go-go-related gene (hERG) potassium channel (human, UniProt Q12809). In words: primary screen, population patch clamp on CHO cells stably expressing hERG.
Chain of human ether-à-go-go-related gene (hERG) potassium channel (Q12809 whole entry, looked up): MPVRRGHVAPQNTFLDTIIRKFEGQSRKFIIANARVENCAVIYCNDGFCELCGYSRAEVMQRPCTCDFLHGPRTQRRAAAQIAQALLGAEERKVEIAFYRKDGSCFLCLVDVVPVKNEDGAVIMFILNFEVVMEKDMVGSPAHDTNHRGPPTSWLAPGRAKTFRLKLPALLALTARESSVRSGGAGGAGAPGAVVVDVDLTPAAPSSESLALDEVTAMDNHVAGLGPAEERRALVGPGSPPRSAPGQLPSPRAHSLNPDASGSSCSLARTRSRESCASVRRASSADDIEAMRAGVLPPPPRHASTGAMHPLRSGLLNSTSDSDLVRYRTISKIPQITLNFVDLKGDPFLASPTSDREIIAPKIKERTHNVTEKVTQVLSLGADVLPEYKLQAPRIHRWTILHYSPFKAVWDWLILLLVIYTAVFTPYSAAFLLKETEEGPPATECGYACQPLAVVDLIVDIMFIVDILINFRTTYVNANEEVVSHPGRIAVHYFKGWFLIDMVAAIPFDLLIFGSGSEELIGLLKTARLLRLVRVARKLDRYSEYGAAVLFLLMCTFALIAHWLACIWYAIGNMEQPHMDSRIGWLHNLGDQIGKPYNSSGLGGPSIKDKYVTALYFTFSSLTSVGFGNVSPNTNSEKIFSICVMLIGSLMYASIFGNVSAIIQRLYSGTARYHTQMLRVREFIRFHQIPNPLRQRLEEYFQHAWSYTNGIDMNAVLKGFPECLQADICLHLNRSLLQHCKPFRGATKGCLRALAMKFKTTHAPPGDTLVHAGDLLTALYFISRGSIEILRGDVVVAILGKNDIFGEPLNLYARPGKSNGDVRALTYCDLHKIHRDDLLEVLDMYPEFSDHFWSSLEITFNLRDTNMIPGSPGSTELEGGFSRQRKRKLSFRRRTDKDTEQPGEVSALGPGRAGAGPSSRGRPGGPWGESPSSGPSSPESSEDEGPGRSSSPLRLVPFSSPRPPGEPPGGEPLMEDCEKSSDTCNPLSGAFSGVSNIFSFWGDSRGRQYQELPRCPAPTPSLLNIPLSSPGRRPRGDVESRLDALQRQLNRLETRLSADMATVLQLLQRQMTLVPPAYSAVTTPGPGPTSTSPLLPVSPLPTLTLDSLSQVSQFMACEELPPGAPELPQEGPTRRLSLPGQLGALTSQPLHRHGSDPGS
With `Cc1c(Cl)c([N+](=O)[O-])nn1CC(=O)N1CCN(C23CC4CC(CC(C4)C2)C3)CC1`, the “hERG current change (%, negative = inhibition) at 1uM” value is 11.3%.

For `COc1ccc(N2C(=O)CCC(C(=O)c3ccccc3)=C2C)cc1`, the “hERG current change (%, negative = inhibition) at 1uM” value came out at 2.53%.

Turning to `COc1ccc(NC(=O)N2CCC(C(=O)c3ccc4c(c3)OCCO4)CC2)cc1`, the “hERG current change (%, negative = inhibition) at 1uM” value stood at 10%.

Regarding `COc1ccc(N2CCN(C(c3cc4cc(C)ccc4[nH]c3=O)c3nnnn3Cc3ccccc3)CC2)cc1` (centres unmarked), the “hERG current change (%, negative = inhibition) at 1uM” value came to 8.29%.

Regarding `O=C(NCc1ccc2c(c1)OCO2)C(=O)NCC(c1ccco1)N1CCN(c2ccccc2)CC1` (centres unmarked), the “hERG current change (%, negative = inhibition) at 1uM” value worked out at 13.3%.

In the case of `COc1ccc(NC(=O)CSc2nc3ccccc3nc2N2CCCC2)c(OC)c1`, the “hERG current change (%, negative = inhibition) at 1uM” value is 15.5%.

As for `Cc1cc(C)cc(NC(=O)COC(=O)c2n[nH]c3ccccc23)c1`, the “hERG current change (%, negative = inhibition) at 1uM” value is 4.52%.

Turning to `NC(=O)C1Cc2ccccc2CN1S(=O)(=O)c1cccs1` (centres unmarked), the “hERG current change (%, negative = inhibition) at 1uM” value is on record as 10.7%.

As for `CCC(C)(C)NC(=O)CN(CC1CCCO1)C(=O)CNS(=O)(=O)c1ccccc1` (centres unmarked), the “hERG current change (%, negative = inhibition) at 1uM” value stood at 4.33%.

For `Cc1[nH]c(=O)c(C(=O)/C=C/c2ccccc2)c2c1CCCC2`, the “hERG current change (%, negative = inhibition) at 1uM” value turned out to be 3.27%.

Take `COc1cc(OC)cc(C(=O)Nc2ccc3c(c2)COC3=O)c1`: the “hERG current change (%, negative = inhibition) at 1uM” value was determined as 8.57%.

Consider `CCCc1ccc2oc(C(=O)N3CCN(CC(=O)NC(C)C)CC3)c(C)c2c1`, for which the “hERG current change (%, negative = inhibition) at 1uM” value is reported as -1.69%.

For `O=C(Cc1ccc(Cl)cc1Cl)OCC(=O)c1ccc[nH]1`, the “hERG current change (%, negative = inhibition) at 1uM” value stood at 13.2%.

Consider `C=CCSc1nnc2c(n1)OC(C)=Nc1ccc(Br)cc1-2`, for which the “hERG current change (%, negative = inhibition) at 1uM” value was 14.5%.

Consider `Cc1cc(N2CCN(C)CC2)nc2ccc(NC(=O)c3cccnc3Cl)cc12`, for which the “hERG current change (%, negative = inhibition) at 1uM” value is 11.2%.

Turning to `N/C(=N\OC(=O)c1cccs1)c1cccc(Br)c1`, the “hERG current change (%, negative = inhibition) at 1uM” value turned out to be 15.1%.

On to `CC(=O)OCCN(C)c1cc(SC(C)C)c2nonc2c1[N+](=O)[O-]`, for which the “hERG current change (%, negative = inhibition) at 1uM” value amounted to 1.97%.

For the compound `Cc1ccc(C(=O)CS(C)(=O)=O)cc1`, the “hERG current change (%, negative = inhibition) at 1uM” value was determined as 17.4%.

`O=C(c1ccc(F)cc1)N1CCC(C(=O)N(Cc2ccccc2)c2ccccc2)CC1`: the “hERG current change (%, negative = inhibition) at 1uM” value is 10.7%.

As for `CCCc1cc(=O)[nH]c(SCC(=O)c2cc(C)n(-c3cc(C)on3)c2C)n1`, the “hERG current change (%, negative = inhibition) at 1uM” value is -3.28%.

In the case of `CC12CCC(=O)N1C(C(=O)Nc1ccc(S(=O)(=O)N3CCCCC3)cc1)CS2` (centres unmarked), the “hERG current change (%, negative = inhibition) at 1uM” value was 6.36%.

As to `COc1ccc(C(=O)NC(=S)N2C[C@H]3C[C@H](C2)c2cccc(=O)n2C3)cc1`, the “hERG current change (%, negative = inhibition) at 1uM” value is on record as -2.32%.

Consider `O=C(N/N=C/c1cccc([N+](=O)[O-])c1)C1CC(=O)N(c2ccc(F)cc2)C1` (centres unmarked), for which the “hERG current change (%, negative = inhibition) at 1uM” value was -36%.

Consider `COc1ccc([C@@H]2C[C@H](c3ccccc3)Oc3cc(OC)c(OC)c(OC)c32)cc1`, for which the “hERG current change (%, negative = inhibition) at 1uM” value was determined as 12.8%.

For `COc1ccccc1OC(C)C(=O)Nc1ccccc1C(=O)NCC1CCCO1` (centres unmarked), the “hERG current change (%, negative = inhibition) at 1uM” value was 11.3%.

Regarding `O=C(Cc1c(O)c2ccccc2[nH]c1=O)NCc1ccccc1`, the “hERG current change (%, negative = inhibition) at 1uM” value is reported as 5.58%.

For the compound `CCN(CC)S(=O)(=O)c1cccc(-c2csc(C)n2)c1`, the “hERG current change (%, negative = inhibition) at 1uM” value is reported as 9.84%.

Consider `CCCC1CCc2c(sc(N)c2C(N)=O)C1` (centres unmarked), for which the “hERG current change (%, negative = inhibition) at 1uM” value worked out at 4.68%.

Turning to `COc1ccc(C2=NN(C(=O)CSc3nnc(C)c(=O)n3N)C(c3ccco3)C2)cc1` (centres unmarked), the “hERG current change (%, negative = inhibition) at 1uM” value was -0.0705%.

As for `CCOC(=O)C1=C(C)NC2=C(C(=O)c3ccccc32)C1c1ccc([N+](=O)[O-])o1` (centres unmarked), the “hERG current change (%, negative = inhibition) at 1uM” value was 3.67%.

Consider `O=C(CC1CCCC1)NNC(=O)c1ccc(Br)cc1`, for which the “hERG current change (%, negative = inhibition) at 1uM” value was determined as 12.3%.

As for `C=CCSC1=N/C(=C/c2ccsc2)C(=O)N1c1ccccc1`, the “hERG current change (%, negative = inhibition) at 1uM” value is 14.3%.

Regarding `Cc1cc(OCC(=O)NCCc2cccc(F)c2)c2c(C)cc(=O)oc2c1`, the “hERG current change (%, negative = inhibition) at 1uM” value is on record as -2.12%.

In the case of `Cc1noc(C)c1COC(=O)CCOc1ccccc1`, the “hERG current change (%, negative = inhibition) at 1uM” value was -8.29%.

For `Cc1ccc(/C(N)=N/OC(=O)Cc2cccs2)cc1`, the “hERG current change (%, negative = inhibition) at 1uM” value is recorded as 3.81%.

Take `CCOC(=O)c1cnn(-c2nc(OC)cc(OC)n2)c1C(F)(F)F`: the “hERG current change (%, negative = inhibition) at 1uM” value is reported as 0.651%.

As to `O=C(/C=C/c1ccc(Cl)c(Cl)c1)n1cccn1`, the “hERG current change (%, negative = inhibition) at 1uM” value is 5.43%.

As to `Cc1ccc(/C=N\NC(=O)c2cncc(Br)c2)o1`, the “hERG current change (%, negative = inhibition) at 1uM” value worked out at 17%.

As for `O=C(CN1C(=O)c2ccccc2C1=O)Nc1cccc(S(=O)(=O)Nc2ccccc2Cl)c1`, the “hERG current change (%, negative = inhibition) at 1uM” value worked out at 16.2%.

On to `O=C(O)c1cc(-c2ccc3c(c2)OCO3)nc2ccc(Cl)cc12`, for which the “hERG current change (%, negative = inhibition) at 1uM” value worked out at 12.5%.

`CN1CCN(C(=O)c2ccc(Cn3cc(Cl)cn3)o2)CC1.Cl`: the “hERG current change (%, negative = inhibition) at 1uM” value worked out at 16.1%.

`Cc1ccsc1C(=O)NCc1ccc(F)cc1`: the “hERG current change (%, negative = inhibition) at 1uM” value was found to be 9.8%.

In the case of `Cc1ccc(S(=O)(=O)N2CCOCC2)cc1C(=O)NCc1cn2ccsc2n1`, the “hERG current change (%, negative = inhibition) at 1uM” value was found to be 13.7%.

Turning to `O=C(CCCc1nc2ccccc2s1)Nc1ccccc1`, the “hERG current change (%, negative = inhibition) at 1uM” value came to 5.44%.

The values above are taken from article PMC4336329 (PLoS ONE, 2015).
